Results as given in publication PMC4336329 (PLoS ONE, 2015).
In all, about 310,000 compounds went through this assay and about 14,000 (4.5%) showed an effect of 50% or more. Effects have a minus sign here. This is one part of the list.

biological target: human ether-à-go-go-related gene (hERG) potassium channel (human, UniProt Q12809); assay: primary screen, population patch clamp on CHO cells stably expressing hERG
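Also: peak tail current of the secondary pulse compared with the same well before compound.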

human ether-à-go-go-related gene (hERG) potassium channel, sequence (Q12809 whole entry, looked up): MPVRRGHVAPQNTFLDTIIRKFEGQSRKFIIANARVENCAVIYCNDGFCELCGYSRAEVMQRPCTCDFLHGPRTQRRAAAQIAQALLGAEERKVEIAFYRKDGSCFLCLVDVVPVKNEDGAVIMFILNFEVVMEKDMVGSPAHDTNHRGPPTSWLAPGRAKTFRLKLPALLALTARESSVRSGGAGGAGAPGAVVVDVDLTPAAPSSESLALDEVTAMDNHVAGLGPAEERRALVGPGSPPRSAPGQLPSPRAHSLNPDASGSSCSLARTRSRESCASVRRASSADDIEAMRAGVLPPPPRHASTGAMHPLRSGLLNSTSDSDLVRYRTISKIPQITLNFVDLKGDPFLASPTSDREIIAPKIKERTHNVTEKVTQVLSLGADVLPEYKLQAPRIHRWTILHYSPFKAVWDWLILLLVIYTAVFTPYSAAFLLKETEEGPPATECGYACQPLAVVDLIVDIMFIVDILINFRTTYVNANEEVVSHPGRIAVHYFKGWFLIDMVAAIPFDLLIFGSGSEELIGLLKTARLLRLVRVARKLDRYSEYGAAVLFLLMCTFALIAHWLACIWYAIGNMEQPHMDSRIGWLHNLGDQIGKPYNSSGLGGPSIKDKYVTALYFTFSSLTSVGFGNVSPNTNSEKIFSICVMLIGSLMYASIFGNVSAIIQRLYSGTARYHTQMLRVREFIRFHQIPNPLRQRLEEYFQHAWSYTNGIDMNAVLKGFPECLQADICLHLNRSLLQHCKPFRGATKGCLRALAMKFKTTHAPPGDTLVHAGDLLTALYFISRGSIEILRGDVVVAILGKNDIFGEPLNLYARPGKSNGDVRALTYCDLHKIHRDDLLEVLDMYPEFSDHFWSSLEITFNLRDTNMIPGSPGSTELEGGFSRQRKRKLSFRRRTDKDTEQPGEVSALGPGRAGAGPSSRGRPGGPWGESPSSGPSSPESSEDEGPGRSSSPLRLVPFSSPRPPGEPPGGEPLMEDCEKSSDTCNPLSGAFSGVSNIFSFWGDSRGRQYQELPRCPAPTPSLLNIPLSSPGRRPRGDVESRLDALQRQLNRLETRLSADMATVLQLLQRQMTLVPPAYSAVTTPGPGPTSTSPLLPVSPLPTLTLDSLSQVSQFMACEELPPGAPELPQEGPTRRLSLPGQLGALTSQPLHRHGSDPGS

| SMILES | hERG current change (%, negative = inhibition) at 10uM [%] |
| --- | --- |
| COc1cccc(C2C3=C(Nc4[nH]n(-c5ccccc5)c(=O)c42)c2ccccc2C3=O)c1 (centres unmarked) | 9.64 |
| CC1(c2cccc(Br)c2)NC(=O)N(CC(=O)Nc2ccc(S(N)(=O)=O)cc2)C1=O (centres unmarked) | 27.5 |
| COC(=O)c1sc2ccccc2c1-n1cccc1C(=O)C(=O)Nc1ccc(OC)cc1 | -3.9 |
| CCCS(=O)(=O)N1CCCC(c2nc(-c3cccc(OC)c3)no2)C1 (centres unmarked) | -9.63 |
| COc1cccc(/C=C(/C#N)c2ccc(F)cc2)c1OCc1cccc(C(=O)O)c1 | 11.4 |
| Cc1ccn2c(=O)nc(SCC(=O)c3ccccc3)nc2c1 | -17.5 |
| COC(=O)c1c(NC(=O)c2ccc([N+](=O)[O-])o2)sc2c1CCN(C(C)C)C2.Cl | -25.1 |
| CC(=O)C1=C(O)C(=O)N(c2ccc(Br)cc2)C1c1cccc([N+](=O)[O-])c1 (centres unmarked) | 24.5 |
| CCCCCCOC(=O)Nc1ccc(S(=O)(=O)Nc2cccc([N+](=O)[O-])c2)cc1 | 9.26 |
| CCCC(=O)Nc1nc2ccc(NC(=O)c3ccccc3F)cc2s1 | 6.02 |
| O=S(=O)(Nc1ccc(S(=O)(=O)N2CCCCC2)cc1)c1ccc(Br)s1 | -4.53 |
| Cc1nc2c(C(=O)NCCC(C)C)c[nH]n2c(=O)c1Cl | 15 |
| COc1ccc(C)cc1NC(=O)c1cc(S(=O)(=O)N2CCC3(CC2)OCCO3)ccc1F | -4.43 |
| COC(=O)C(O)(CC(=O)Nc1cc(OC)c(OC)c(OC)c1)C(F)(F)F (centres unmarked) | 16.8 |
| COc1ccc(N(CC(=O)NC2CCCC2)C(=O)c2ccc(N3CCCCC3)nc2)cc1 | 3.75 |
| Cn1c2ccccc2c2cnn(CC(=O)Nc3ccc(Cl)cc3)c(=O)c21 | 12.1 |
| COCCn1c(C)cc(C(=O)COC(=O)c2ccccc2Br)c1C | -38.3 |
| CCCCn1c(N)c(N(CCOC)C(=O)c2cc(-c3ccncc3)nc3ccccc23)c(=O)[nH]c1=O | 24.2 |
| COc1ccc(Br)cc1S(=O)(=O)Nc1cccc(C)n1.Cl | 10.1 |
| O=C(CN1CCC(O)(c2cccc(C(F)(F)F)c2)CC1)NCCc1ccccc1 | -15.1 |
| CCn1c2ccccc2c2cc(NC(=O)C/C(C)=N/NC(=O)c3ccccc3N)ccc21 | 1.86 |
| CCCCC(=O)Oc1ccccc1C1SCc2cc(C)c(C)cc2CS1 | 17.6 |
| O=c1[nH]c2ccc(N/C(=N/S(=O)(=O)c3ccccc3)c3ccccc3)cc2[nH]1 | 22.7 |
| COc1cc(S(=O)(=O)N(CCc2ccccc2)Cc2cccs2)ccc1-n1cnnn1 | -3.57 |
| O=[N+]([O-])c1ccc(NCc2ccc(Cl)cc2)nc1 | 0.977 |
| CCCC(=O)N(c1ccc2oc(C)c(C(C)=O)c2c1)S(=O)(=O)c1ccc(C(=O)O)cc1 | 19.4 |
| CCOC(=O)N1CCC(Nc2c(NCCCN3CCN(C4CCCCC4)CC3)c(=O)c2=O)CC1 | 9.78 |

| SMILES | hERG current change (%, negative = inhibition) at 10uM [%] |
| --- | --- |
| Cc1cc(C)c2c(n1)SCC(=O)N2CC(=O)Nc1ccccc1Cl | 0.318 |
| COC(=O)C(C)N1C(=O)S/C(=C\c2cc(C)n(-c3ccccn3)c2C)C1=O (centres unmarked) | -17.7 |
| COc1cc(NC(=O)c2ccc(-c3csc(C)n3)cc2)c(OC)cc1Cl | 17.9 |
| C=CCOc1ccc2nnc(C)n2n1 | -7.32 |
| O=C(Nc1cc(Cl)cc(Cl)c1)N1CCCN(Cc2ccccc2)CC1 | -76.3 |
| C/C(=N\NC(=O)c1c[nH]c2ccccc12)c1ccccn1 | 12.7 |
| CCC(C)N(CCNC(=O)CC1Oc2ccccc2NC1=O)C1CCCCC1 (centres unmarked) | -57.7 |
| COC(=O)/C(=C1/Oc2cc3c(cc2S1)OCO3)C(F)(F)F | 10 |
| COc1ccc(/C=N/n2c(C)nc3sc(C)c(C)c3c2=O)cc1OC | 5.04 |
| Cc1ccc(OCC(=O)Nc2cccc(C)n2)c(C)c1 | 15.5 |
| COc1ccc2oc(=O)c(/C(N)=N/NC(=O)c3ccncc3)cc2c1 | 2.46 |
| COc1ccc(NC(=O)c2sc3nc(-c4cccnc4)ccc3c2N)cc1 | -0.0629 |
| Cc1ccc(COc2ccc(CNCCCN3CCCCCC3=O)cc2)cc1 | -18.6 |
| CCCNC(=O)c1ccc2c(=O)c(O)c(-c3ccc(C)cc3)[nH]c2c1 | -9.57 |
| COc1cc(/C=C(\C#N)c2nc3ccccc3[nH]2)c([N+](=O)[O-])cc1OCc1ccccc1 | 8.16 |
| CCOc1ccc(OCC)c(NC(=O)C2CCCN2S(=O)(=O)c2cccc3cccnc23)c1 (centres unmarked) | -4.43 |
| O=C(N/N=C/c1ccccc1C(=O)O)c1cccc(S(=O)(=O)N2CCOCC2)c1 | -32.2 |
| O=C(COC(=O)C1CC2CCCC(C1)C2=O)Nc1nc(-c2ccc(F)c(F)c2)cs1 (centres unmarked) | -6.64 |
| Cc1cc(C)c2[nH]c(=O)c(CN(Cc3ccco3)C(=O)C3CCCO3)cc2c1 (centres unmarked) | -16.5 |
| COc1cccc(C(=O)NC2C(=O)N3C(C(=O)O)=C(COC(C)=O)CSC23)c1 (centres unmarked) | 8.14 |
| COc1ccc(CNC(=O)COC(=O)C2=COCCO2)cc1 | 4.72 |
| Cc1ccc(N(CN2CCCC2=O)C(=O)c2ccc(OC(C)C)cc2)cc1 | -1.79 |
| O=C(CSc1ccc(Cl)cc1)N1CCN(c2ccc([N+](=O)[O-])cc2Cl)CC1 | -59.2 |
| CCOc1ccc(/C=N/NC(=O)c2ccc(Cn3cc([N+](=O)[O-])cn3)o2)cc1 | -31.4 |
| Cl.O=C(CNC1=NCCC1)c1ccc(Cl)cc1 | -12.2 |
| COc1ccc(C)cc1NC(=O)c1sc2ncnc(N3CCN(c4ccccn4)CC3)c2c1C | -9.78 |
